These results are taken from paper PMC4336329 (PLoS ONE, 2015).

In all, about 310,000 compounds went through this assay and about 2,200 (0.71%) showed an effect of 50% or more. The effect is printed as a negative number. Some of the results follow.

Sequence of human ether-à-go-go-related gene (hERG) potassium channel (Q12809 whole entry, looked up): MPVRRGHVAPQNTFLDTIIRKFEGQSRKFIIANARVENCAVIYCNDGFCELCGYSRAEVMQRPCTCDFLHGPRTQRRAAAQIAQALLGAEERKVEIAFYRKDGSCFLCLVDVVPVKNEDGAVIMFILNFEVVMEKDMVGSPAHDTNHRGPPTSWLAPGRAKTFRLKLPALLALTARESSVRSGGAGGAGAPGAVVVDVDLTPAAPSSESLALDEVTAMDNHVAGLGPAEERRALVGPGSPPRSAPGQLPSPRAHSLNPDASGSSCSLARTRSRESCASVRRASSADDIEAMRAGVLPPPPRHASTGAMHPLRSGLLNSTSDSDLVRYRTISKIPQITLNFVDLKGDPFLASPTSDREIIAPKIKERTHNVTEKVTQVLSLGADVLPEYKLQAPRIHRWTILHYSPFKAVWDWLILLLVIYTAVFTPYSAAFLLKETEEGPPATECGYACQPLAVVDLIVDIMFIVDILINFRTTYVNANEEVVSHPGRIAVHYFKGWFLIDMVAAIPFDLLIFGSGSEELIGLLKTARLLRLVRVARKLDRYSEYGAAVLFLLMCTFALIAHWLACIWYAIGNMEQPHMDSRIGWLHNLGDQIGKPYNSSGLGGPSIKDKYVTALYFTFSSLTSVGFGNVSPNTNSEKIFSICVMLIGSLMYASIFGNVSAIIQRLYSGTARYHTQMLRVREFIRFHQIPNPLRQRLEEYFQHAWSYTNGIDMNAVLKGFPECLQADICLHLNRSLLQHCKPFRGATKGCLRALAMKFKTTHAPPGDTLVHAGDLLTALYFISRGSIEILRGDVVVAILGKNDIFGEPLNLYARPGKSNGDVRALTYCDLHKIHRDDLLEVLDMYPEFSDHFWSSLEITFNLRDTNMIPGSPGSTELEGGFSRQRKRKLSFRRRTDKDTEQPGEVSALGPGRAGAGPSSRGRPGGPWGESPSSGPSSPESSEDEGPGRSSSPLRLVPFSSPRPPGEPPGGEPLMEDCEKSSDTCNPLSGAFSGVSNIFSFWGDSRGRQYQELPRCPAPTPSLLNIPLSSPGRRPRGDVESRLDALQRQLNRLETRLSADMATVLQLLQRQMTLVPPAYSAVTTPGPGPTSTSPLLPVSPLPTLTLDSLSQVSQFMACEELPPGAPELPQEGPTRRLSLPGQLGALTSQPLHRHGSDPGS

The experiment addresses human ether-à-go-go-related gene (hERG) potassium channel (human, UniProt Q12809). The experiment can be described thus: primary screen, population patch clamp on CHO cells stably expressing hERG.
In the case of `Cc1cc(C(=O)Nn2c(-c3ccc(Br)cc3)nc3ccccc3c2=O)ccc1[N+](=O)[O-]`, the “hERG current change (%, negative = inhibition) at 1uM” value was 11.9%.
For `COc1cccc(/C=C2\Sc3ccc(C(=O)NCC4CCCO4)cc3N(C)C2=O)c1` (stereo not shown) the value was 6.63%; for `COc1cc(C(=O)NCC(c2ccco2)N(C)C)cc(OC)c1OC` (stereo not shown), 3.1%.
With `O=C(CSc1nc2ccccc2s1)Nn1cnnc1`, the “hERG current change (%, negative = inhibition) at 1uM” value is reported as 4.59%.
With `COC(=O)c1ccccc1NC(=O)c1cc[n+]([O-])cc1`, the “hERG current change (%, negative = inhibition) at 1uM” value is given as 5.25%.
In the case of `COCCNS(=O)(=O)c1ccc(-c2ccc(C)cc2)cc1` it was 2.91%; in that of `O=[N+]([O-])c1ccc(-c2nc(-c3ccncc3)no2)cc1`, 1.86%; in that of `CC(=O)Nc1ccc(NC(=O)[C@@H]2CCCC[C@@H]2C(=O)O)cc1`, 10.3%.
For `CCCCCC(=O)Nc1ccc2ccccc2c1` the value was 9.07%; for `CCOc1cc(-c2nc(C)c(C(C)=O)n2O)ccc1OCC(=O)Nc1ccccc1`, -2.12%; for `Cc1ccccc1-c1noc(-c2ccc(O)cc2)n1`, 8.09%.
In the case of `COc1ccc(CN(C)CC(=O)Nc2ccccc2C(F)(F)F)c(OC)c1.O=C(O)C(=O)O` it was 4.33%.
Regarding `O=C(Oc1ccc([N+](=O)[O-])cc1)c1cncc(Br)c1`, the “hERG current change (%, negative = inhibition) at 1uM” value is on record as 2.34%.
For the compound `CC(C)(O)C#Cc1ccc(C(=O)N2CCCC(CCC(=O)NCc3ccccc3F)C2)cc1` (stereo not shown), the “hERG current change (%, negative = inhibition) at 1uM” value is on record as 6.38%.
For the compound `CCOC(=O)CNC1CC(=O)N(c2cccc(Cl)c2)C1=O` (stereo not shown), the “hERG current change (%, negative = inhibition) at 1uM” value was 3.44%.
For `CCOC(=O)CNC(=O)Cn1cnc2c(oc3ccccc32)c1=O`, the “hERG current change (%, negative = inhibition) at 1uM” value is 0.131%.
For `COc1cc(C(=O)NNC(=O)c2ccc(F)cc2)ccc1OCC(=O)N1CCOCC1` the value was 10.3%; for `COc1cccc(-c2nnc(NC(=O)c3ccc(Cl)s3)o2)c1`, 7.08%; for `CCC1=Nc2cc(C(=O)NCc3ccco3)ccc2Sc2ccccc21`, 6.59%.
For `CCc1cccc(NC(=O)CCS(=O)(=O)c2ccc3c(c2)NC(=O)CO3)c1` the value was -0.436%.
In the case of `NC(=O)C1CCN(C(=O)c2ccccc2CCc2ccccc2)CC1` it was 13.6%; in that of `COc1ccc(N2CCN(C(=O)CCN3C(=O)C4C5C=CC(C5)C4C3=O)CC2)cc1` (stereo not shown), 8.87%.
With `O=C(O)COCC(=O)NCc1csc2ccc(Cl)cc12`, the “hERG current change (%, negative = inhibition) at 1uM” value stood at 14%.
`COc1ccc(CNCc2ccncc2)c(OC)c1.Cl`: the “hERG current change (%, negative = inhibition) at 1uM” value worked out at 7.51%.
Regarding `COc1ccc(/C=N/NC(=O)c2cccnc2)cc1CN1CCCc2ccccc21`, the “hERG current change (%, negative = inhibition) at 1uM” value amounted to 7.64%.
In the case of `Cn1c(=O)c2c(nc(NCc3ccco3)n2C/C=C/c2ccccc2)n(C)c1=O` it was 10.1%; in that of `Nc1ccccc1C#Cc1ccccc1`, 14.3%; in that of `Cc1cc(C)cc(N2C(=O)CC(Sc3ncn[nH]3)C2=O)c1` (stereo not shown), 15.7%.
Take `COc1ccc(C(c2c(C)n(C)n(-c3ccccc3)c2=O)c2c(C)n(C)n(-c3ccccc3)c2=O)cc1OC`: the “hERG current change (%, negative = inhibition) at 1uM” value came to 13.3%.
Turning to `O=C(O)CCCNC(=O)/C=C/c1ccco1`, the “hERG current change (%, negative = inhibition) at 1uM” value was determined as 17.8%.
In the case of `Cc1cc(NS(=O)(=O)c2cccc([N+](=O)[O-])c2)no1` it was 19.1%; in that of `Cc1cc(C)c(Cn2cnc3ccccc32)c(C)c1`, 4.3%; in that of `Cc1cc(N2CCN(C)CC2)nc2ccc(NC(=O)c3ccc(Br)o3)cc12`, -39.1%.
For `Cn1c(CNC(=O)CNC(=O)c2cccc(Cl)c2)cc(=O)n(C)c1=O` the value was 16.9%; for `Cc1c(OCC(=O)NCCCN2CCOCC2)ccc2c3c(c(=O)oc12)CCCC3`, 9.41%; for `Cc1ccc(NC(=O)COC(=O)c2ccccc2Cl)cc1S(=O)(=O)N(C)C`, -1.16%.
Turning to `CCOC(=O)c1sc2ncn(CC(=O)NCC3CCCO3)c(=O)c2c1C` (stereo not shown), the “hERG current change (%, negative = inhibition) at 1uM” value turned out to be 5.17%.
For `Cc1ccc(S(=O)(=O)N(C)CC(=O)NCCc2c[nH]c3ccccc23)cc1` the value was 5.49%.
In the case of `COc1ccccc1CNC(=O)CN1CCN(Cc2ccc(Cl)cc2)C1=O` it was 2.97%; in that of `COc1ccccc1/C=N/OCc1cc(C(C)=O)ccc1OC`, 15.1%; in that of `CC[n+]1c(S(=O)(=O)[O-])ccc2ccc(C)cc21`, 12.9%.
In the case of `COc1ccc(NS(=O)(=O)c2cc(N/C(=N\S(=O)(=O)c3ccccc3)c3ccc(F)cc3)ccc2Cl)cc1` it was 0.862%; in that of `CCn1c(C(O)c2cc(OC)ccc2OC)nc2ccccc21` (stereo not shown), 12.6%; in that of `CCOC(=O)c1ccc(NC(=O)CN2C(=O)NC3(CCC(C)CC3)C2=O)cc1` (stereo not shown), 11.4%.
As to `COc1ccc(CC(=O)OCC(=O)NC(=O)NC(C)C)cc1`, the “hERG current change (%, negative = inhibition) at 1uM” value came to 6.13%.
For `CC(OC(=O)Cc1c[nH]c2ccccc12)C(=O)N(C)c1ccccc1` (stereo not shown), the “hERG current change (%, negative = inhibition) at 1uM” value came out at 0.419%.
In the case of `CCN(CC(=O)Nc1ccc(NC(C)=O)cc1)C(=O)c1ccc2ccccc2c1` it was 17.8%.
Take `CCCn1c(=O)c(C#N)cn(C2CC2)c1=O`: the “hERG current change (%, negative = inhibition) at 1uM” value is 9.74%.
As to `COc1ccc(-c2cc(C(=O)NNC(=O)c3csc(N4CCOCC4)n3)c3ccccc3n2)cc1OC`, the “hERG current change (%, negative = inhibition) at 1uM” value is recorded as 15.1%.
As to `Oc1cccc(/C=N/NC(=S)NCCN2CCOCC2)c1O`, the “hERG current change (%, negative = inhibition) at 1uM” value came out at 15.3%.
In the case of `CCC(C)N1C(=S)SC(C)(C)C1N(O)C(=O)NC1CCCCC1` (stereo not shown) it was 14.3%.
In the case of `O=C(NC1CCCC1)c1cccc(Cn2cc([N+](=O)[O-])cn2)c1` it was -9.75%; in that of `O=C(O)CCN1c2cccc3cccc(c23)S1(=O)=O`, 7.78%; in that of `Cc1ccccc1NCC(=O)N/N=C\C=C\c1cccc([N+](=O)[O-])c1`, -15.1%.
For `CCOC(=O)c1ncn2c1CN(C)C(=O)c1cc(F)ccc1-2` the value was 16.6%; for `CCOC(=O)c1ccc(NC(=O)CSCc2ccco2)cc1`, 12.4%.
In the case of `COC(=O)c1c(C)nn(-c2ccccc2)c1-n1cccc1`, the “hERG current change (%, negative = inhibition) at 1uM” value was 4.55%.
For `CN(C)C(=O)CNC(=O)C1CCCCC1` the value was 8.76%.
In the case of `COc1ccc(Cc2nc(C(=O)Nc3ccccc3)cs2)cc1` it was 10.8%; in that of `CCCCn1c(=O)c(CCC(=O)OCC(=O)Nc2ccc(F)c(Cl)c2)nc2ccccc21`, 14.7%.
For `CCCCCC(=O)NC(=S)Nc1ccc(Cl)cn1` the value was 3.28%.
Take `Cc1ccc(-c2cn(-c3ccccc3F)c(=S)[nH]2)cc1`: the “hERG current change (%, negative = inhibition) at 1uM” value is on record as 15.9%.
In the case of `CCOc1ccc(C(=O)CCC(=O)NC(C)C(=O)OC)cc1` (stereo not shown) it was 2.1%.
In the case of `CCOC(=O)Nc1ccc2c(c1)N(CCCN(C)C)c1ccccc1CC2.Cl` it was -1.92%; in that of `O=C(CCC(=O)OCC(F)(F)C(F)F)Nc1ccc(F)cc1F`, 11.6%; in that of `CCOC(=O)c1ccc(NC(=O)c2cccc3c2C(=O)N(CC2CCCO2)C3)cc1` (stereo not shown), 9.99%.
For `COC(=O)C1=C(c2cccc(OCc3ccccc3)c2)C[C@@H]2CC[C@H]1N2C(=O)NCCCc1ccccc1`, the “hERG current change (%, negative = inhibition) at 1uM” value is 7.11%.
Consider `COC(=O)c1ccc(NC(=O)C2CCN(S(C)(=O)=O)CC2)cc1`, for which the “hERG current change (%, negative = inhibition) at 1uM” value was 9.85%.
For `N#C/C(=C\c1cccc(O)c1)C(=O)N1CCCCC1` the value was 15.1%.
Take `O=C(CSc1nc2ccccc2c(=O)[nH]1)N1CCCCCC1`: the “hERG current change (%, negative = inhibition) at 1uM” value was 12.6%.
In the case of `CC1CCN(Cc2c(C(=O)N3CCc4ccccc4C3)nc3ccc(Cl)cn23)CC1` it was 9.3%; in that of `O=C(CNS(=O)(=O)c1cccs1)NCc1ccc(F)cc1`, 0.971%; in that of `CSCCC(NC(=O)c1ccco1)c1nc2ccccc2[nH]1` (stereo not shown), 13.4%.
In the case of `Cc1ccc(-c2csc(NC(=O)C3=COCCO3)n2)cc1` it was 8.06%; in that of `CCCCCn1nnc2c(=O)oc3ccccc3c21`, 5.45%; in that of `CSC1=NCCN1C(=O)Cc1cccs1`, 5.49%.
For `O=C(Cc1cccc2ccccc12)Nc1ccc(-c2cc3ccccc3oc2=O)cc1` the value was 5.11%; for `O=S(=O)(c1ccc(OCC(O)CN2CCCC2)cc1)N1CCOCC1` (stereo not shown), 9.44%; for `Cc1ccc(C(=O)n2cnc3ccccc32)cc1C`, 10.5%.
As for `COc1ccc(NC(=O)c2cccc(S(=O)(=O)N3CCCCC3)c2)c(OC)c1`, the “hERG current change (%, negative = inhibition) at 1uM” value was 7.46%.
In the case of `N#Cc1ccc(S(=O)(=O)NC2CC2)cc1` it was 18.1%.
For `OC(CNCCc1ccc(Cl)cc1)COc1cc(Cl)ccc1Cl` (stereo not shown) the value was 2.52%; for `Cc1cc(=O)[nH]c(SCCOc2ccc(OC(C)C)cc2)n1`, 13.8%.
For `O=C(CN1CCCCC1)Nc1ccccc1NC(=O)CN1CCCCC1` the value was 12%.
Take `ONC(=Nc1cccc(C(F)(F)F)c1)c1cccnc1`: the “hERG current change (%, negative = inhibition) at 1uM” value is listed as 8.06%.
In the case of `O=C(NC(c1ccccc1)c1ccccc1)C1CCCN(S(=O)(=O)c2cnc[nH]2)C1` (stereo not shown) it was 16.4%; in that of `C/C(=N/NS(=O)(=O)c1cccc([N+](=O)[O-])c1)c1c[nH]c2ccccc12`, 7.92%; in that of `O=C1c2cccc3c(Nc4ccccc4Cl)c([N+](=O)[O-])cc(c23)C(=O)N1CCO`, 11%.
For the compound `Cc1noc(C)c1C(=O)Nc1cccc(S(=O)(=O)N2CCCCC2)c1`, the “hERG current change (%, negative = inhibition) at 1uM” value was determined as 4.49%.
For `CC(C)COc1ccc(C(=O)N(Cc2ccco2)C2CCS(=O)(=O)C2)cc1` (stereo not shown) the value was 6.87%.
In the case of `Cc1ccc(NC(=O)COc2cccc(C)c2C)cc1S(=O)(=O)N1CCCCCC1` it was 0.574%.
